Measured values published in PubChem BioAssay AID1963576 (National Center for Advancing Translational Sciences (NCATS), 2024).
The campaign covered roughly 46,000 compounds. About 60 (0.1%) were called active. Not shown: some 3% with an inconclusive outcome. Calls follow the shape of the dose curve; as a rule, active = well fitted inhibition curve with a large enough effect; inconclusive = small, poorly fitted or top-dose-only effect; inactive = no such curve, though single readings can be large or run the other way. The list shows a part of the results.

assay: Primary qHTS assay for Inhibitors of ovarian cancer metastasis using an organotypic tumor microenvironment (TME) model.; also: nearly all actives have a fitted effect of over 65% in size;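 as to activity change, negative = inhibition: plate controls were DMSO wells for no effect and tomatine positive control wells for full effect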; details: SKOV3ip1-GFP adhesion/invasion on 3D omental model, fluorescence; series mostly up to 45.8 µM; activity change, negative = inhibition: at the top concentration
Procedure, shortened: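 Adhesion/invasion was scored as fixed GFP-labeled SKOV3ip1 cell counts (488/509 nm), normalized to DMSO and tomatine controls. Cancer cells in serum-free medium, with four compound doses (0.36-46 umol/L), sat 2 hr at RT then 16 hr at 37 C on a 48 hr fibroblast/mesothelial/ECM culture.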

outcome, inactive:
CS(=O)(=O)c1ccccc1-c1nnc(NC(=O)c2ccc3c(c2)OCCO3)o1
CCCOc1ccc(C(=O)Nc2nonc2-c2ccc(OCC)cc2)cc1
CCCc1ccc(S(=O)(=O)N2CCC(c3nnnn3-c3ccc(OC)cc3)CC2)cc1
CCCOc1ccc(CNC(=O)c2oc3ccc4c(c3c2C)C(=O)CC(C)(CC)O4)cc1 (centres undefined)
CCOc1cc(C#N)c(NC(=O)c2ccc(OC)c(S(=O)(=O)N3CCN(c4ccccc4)CC3)c2)cc1OCC
CN1CCN(CCCNC(=O)c2cnn(-c3ccc(F)cc3)c2-n2cccc2)CC1
COc1ccc(N(CC(=O)N2CCc3ccccc3C2)S(=O)(=O)c2ccc(C)cc2)cc1Cl
O=S(=O)(NCC(c1ccco1)N1CCOCC1)c1ccc(Br)cc1 (centres undefined)
CCCn1c2ccccc2c2cnn(CC(=O)NCCCN3CCCCC3)c(=O)c21
O=C(NCCc1ccccc1)c1ccc2nc(N3CCCCC3)sc2c1
CCOc1ccccc1CNC(=O)CCc1c(C)nn(-c2ccc(N3CCCCC3)nn2)c1C
O=C1CSC2(C(=O)N(Cc3ccccc3F)c3ccccc32)N1c1cccc(C(F)(F)F)c1 (centres undefined)
CC(C)c1ccc(NC(=O)CSC2=Nc3ccccc3C3=NC(CC(=O)NCc4cccs4)C(=O)N23)cc1 (centres undefined)
COc1cc(NC(=O)CSc2ncc3c(n2)-c2ccc(Cl)cc2N(Cc2ccccc2)S3(=O)=O)cc(OC)c1
COc1ccc(CNC(=O)c2cc3cc4ccc(C)cc4nc3o2)cc1
Cc1ccc(NC(=O)CN2C(=O)COc3ccc(S(=O)(=O)N4CCCCCC4)cc32)cc1Cl
CC(C)Cc1nn2c(=O)cc(COC(=O)CNC(=O)c3ccc(C(C)(C)C)cc3)nc2s1
COc1cccc(CNC(=O)Cn2ccc3cc(S(=O)(=O)N4CCCC4)ccc32)c1OC
CCOC(=O)c1noc2ncnc(Nc3cc(Cl)c(OC)cc3OC)c12
COc1cccc2sc(NC(=O)c3ccc(S(=O)(=O)N4CCC(C)CC4)cc3)nc12
CCN1CCN(CCCNC(=O)CS(=O)(=O)Cc2nc(-c3ccccc3C)oc2C)CC1
O=S(=O)(Nc1ccc(-c2ccc(N3CCCC3)nn2)cc1)c1ccc(C(F)(F)F)cc1
Cc1cc(C)cc(OC(=O)c2cc(-c3ccc(Cl)cc3)on2)c1
Cc1cc(=O)n(Cc2ccc(F)cc2Cl)c2c1c(C)nn2C

Activity change, negative = inhibition, inactive:
O=C(Nc1nc2n(n1)C(c1ccccc1)C=C(c1ccccc1)N2)c1ccccc1 (centres undefined) 5.03%
COc1cc(Cl)c(C)cc1NC(=O)CCc1c(C)nc2c3cccnc3nn2c1C -7.69%
CCOc1ccc(-c2cc(NC(=O)c3cccc(Cl)c3)c(C(=O)OC)s2)cc1 -2.32%
CNC(=O)C(=O)NCC(c1ccc2c(c1)OCO2)N1CCOCC1 (centres undefined) -8.73%
Cc1cc(C)cc(NC(=O)CSc2nc3c([nH]c4ccccc43)c(=O)n2-c2ccc(F)cc2)c1 87.3%
O=C(c1ccc(F)cc1F)N1CCC(c2nc(-c3ccc(S(=O)(=O)N4CCCC4)cc3)no2)CC1 36.1%
COc1ccc(CNC(=O)C2=C(C)C(=O)OC23CCCCC3)cc1OC -6.71%
CC1=C(C(=O)Nc2ccccc2)C(c2ccc(C)cc2)n2nc(SCc3ccccc3C)nc2N1 (centres undefined) 31.2%
Cc1oc2cc3oc(=O)c(CC(=O)N4CCCCC4)c(C)c3cc2c1C -13.3%
CCOC(=O)c1ccc(NC(=O)c2cn(-c3ccccc3)nc2-c2ccc(C)cc2)cc1 9.72%
CCc1nnc2c(N3CCN(c4cccc(C(F)(F)F)c4)CC3)nc3ccccc3n12 3.5%
COc1ccc(CNC(=O)Cn2c(=O)c3cccn3c3ccccc32)cc1 1.02%
CSc1nc(-c2ccccc2Cl)nc2c1Cc1c(CO)cnc(C)c1O2 -3.28%
O=C(Nc1c(C(=O)N2CCN(c3ccccc3F)CC2)oc2ccccc12)c1ccco1 -3.96%
CNc1ccc(-c2nc(-c3ccccc3C)no2)cc1[N+](=O)[O-] 0.523%
O=C(Cn1c(=O)n(Cc2ccco2)c(=O)c2oc3ccccc3c21)Nc1ccc(F)c(Cl)c1 -4.88%
COc1cccc(CNc2ncnc3onc(C)c23)c1 -1.7%
COc1ccc(OC)c(CN2CCN(S(=O)(=O)c3ccccc3)CC2)c1 6.39%
Cc1ccccc1NC(=O)c1cn(-c2ccccc2)nc1-c1ccccc1 -14.4%
CCc1cc(-c2n[nH]c(C)c2-c2ccc3c(c2)OCCO3)c(O)cc1O 32.3%
CCOc1cc(C2C(C(=O)OC)=C(C)NC3=C2C(=O)c2ccccc23)ccc1OC (centres undefined) -0.419%
Cc1ccc(S(=O)(=O)c2cnc(SCC(=O)Nc3ccc4c(c3)OCCO4)[nH]c2=O)cc1Cl 8.01%
CCOc1ccc(NC(=O)c2sc3nc4c(c(-c5ccccc5)c3c2N)C(=O)CC(C)(C)C4)cc1 -4.69%
CCOC(=O)c1c(NC(=O)CSc2cn(CCNC(=O)c3cccc(C(F)(F)F)c3)c3ccccc23)sc2c1CCC2 19.3%
Cc1ccc2oc(C(=O)N(Cc3ccc(N(C)C)cc3)CC3CCCO3)c(C)c2c1 (centres undefined) -5.21%
O=C(Nc1ccc(Br)cc1)c1cc(-c2cccs2)nc2ccccc12 -16%
CC1CCC(N2CC(=O)N(C3CCCCC3)C(c3ccc(Cl)cc3)C2=O)CC1 (centres undefined) 40.4%
COc1cccc(C(=O)Nc2nc3ccc(S(=O)(=O)N4CCCC4)cc3s2)c1 -35.5%
CC(NC(=O)C1CCN(S(=O)(=O)c2ccc(F)cc2)CC1)c1ccccc1 (centres undefined) -7.65%
CN1CCC(=C2c3ccccc3CCc3sccc32)CC1 3.82%
O=C(Cn1ncc2c3ccccc3n(Cc3ccc(Cl)cc3)c2c1=O)NCCC1=CCCCC1 30.6%
CN(C)CCNC(=O)C1CCN(c2ncnc3c2nc2n3CCCCC2)CC1 2.04%
Cc1ccc(NS(=O)(=O)c2ccc(-c3cnc(C4CC4)o3)cc2)cc1N(C)C 3.28%
CC(C)Oc1ccc(C(=O)N2CCC(c3nc4ccccc4o3)CC2)cc1 -14.4%
COc1ccc(-c2cc(C(=O)Oc3ccc(C)cc3)c3ccccc3n2)cc1 -2.82%
Cc1nc(-c2cccc(F)c2)sc1CCNC(=O)c1c(F)cccc1Cl -6.56%
Cc1ccc(NC(=O)CSc2nnc(-c3nnn(-c4ccc(F)cc4)c3C)o2)cc1Br 7.07%
O=C(Cc1ccccc1)Nc1c(C(=O)c2ccccc2)oc2ccccc12 -6.2%
CCc1ccc(C(=O)COC(=O)C(Cc2c[nH]c3ccccc23)NC(=O)c2ccc(CC)cc2)cc1 (centres undefined) -7.72%
Cc1ccc(OCC(=O)Nc2nonc2-c2ccc(C)c(C)c2)cc1C 1.59%
COC(=O)Nc1nc2ccc(C(=O)c3ccc(F)cc3)cc2[nH]1 -13.9%
CCCCn1c(=NC(=O)C(C)(C)Oc2ccc(Cl)cc2)c(C(=O)OCC)cc2c(=O)n3ccccc3nc21 -34.5%
COc1cccc(N2CCN(C(=O)c3cc4c(s3)-c3c(C)cccc3OC4)CC2)c1 -14%
Cc1ccc(C)c(CNC(=O)c2ccc3c(c2)nc2n3CCOC2)c1 -12.7%
COc1ccccc1C(=O)Nc1cccc(C(=O)OCc2cc(=O)n3nc(C4CC4)sc3n2)c1 0.665%
O=C(Nc1ccc(OC(F)(F)F)cc1)C(Cc1ccccc1)NS(=O)(=O)c1cccc2nsnc12 (centres undefined) -8.08%
COc1ncc(-c2ccc3nccc(-c4ccnnc4)c3c2)cc1NS(=O)(=O)c1ccc(F)cc1F 4.37%
CCOC(=O)c1c(Nc2ccc(O)cc2)nnc(-c2ccccc2)c1-c1ccccc1 -8.96%
Cc1ccc(S(=O)(=O)c2nnn3c2nc(NCc2ccc4c(c2)OCO4)c2sccc23)cc1 21.1%
COC(=O)c1ccc(C2c3c(oc4ccc(C)cc4c3=O)C(=O)N2Cc2ccc3c(c2)OCO3)cc1 (centres undefined) 6.61%
Cc1ccc(-c2nnc(Nc3ccc(C(N)=O)cc3)c3ccccc23)cc1S(N)(=O)=O -0.757%
O=C(Nc1ccc(-c2nc3ccccc3o2)c(O)c1)c1ccccc1 -0.336%
COc1ccc(NC(=O)Cn2c(=O)c3cccn3c3ccccc32)cc1Cl -6.42%
CC(C)CN(C[C@H](O)[C@H](Cc1ccccc1)NC(=O)O[C@H]1CCOC1)S(=O)(=O)c1ccc(N)cc1 -5.86%
Cc1cc(C)cc(NC(=O)c2ccc3oc(=O)c(S(=O)(=O)c4ccc(F)cc4)cc3c2)c1 -3.76%
COc1ccc(N2CCN(C(=O)C3CCN(S(=O)(=O)c4cccc5nonc45)CC3)CC2)cc1 3.18%
CCOc1ccccc1OCCCCn1c(-c2ccc(Cl)cc2)nc2ccccc2c1=O -15.2%
Cc1nnc(N2CCCC(C(=O)NCCN(C)C)C2)c2nn(-c3ccccc3)c(C)c12 (centres undefined) 1.95%
CCOc1ccc(CNCc2c(C(=O)O)c(C)n(Cc3ccc(C)cc3)c2C)cc1 8.52%
Cc1sc(-c2cc3ccccc3oc2=O)nc1-c1ccc(Cl)c(Cl)c1 -1.18%
COc1ccc(-c2nc3sc(CCNC(=O)Cc4ccc(F)cc4)c(C)n3n2)cc1 -11.2%
COc1ccc(C)cc1NC(=O)Nc1cc(C(=O)NCc2ccc(C)cc2)ccc1N1CCCC1 -3.09%
CCC(Sc1nc(-c2ccccc2)[nH]c1S(=O)(=O)c1ccc(C)cc1)C(=O)O (centres undefined) -4.23%
Cc1ccc(-n2ncc3c(N(C)C)ncnc32)cc1Cl -4.69%
Cc1cccc(-c2nc(CCNC(=O)c3ccc(Br)o3)cs2)c1 -8.57%
O=C(NCCCN1CCN(c2ccc(F)cc2)CC1)c1cc2c(Cl)nc3ccccc3c2s1 4.08%
CC(C)c1ccc(-c2noc(SCC(=O)N3CCCCC3C)n2)cc1 (centres undefined) 8.76%
CC1CCc2onc(C(=O)N3CCN(c4ccc(F)cc4)CC3)c2C1 (centres undefined) -23.8%
CCCCCN1C(C(=O)c2ccccc2)=C(NC(=O)c2ccc(C)cc2)c2ccccc2S1(=O)=O 2.25%
CCN(CC)C(=O)Cn1c(=O)n(-c2ccc(C)c(C)c2)c(=O)c2c(C)c(C(=O)N(CC)CC)sc21 -1.81%
